Out of some 150,000 compounds screened, about 540 (0.36%) showed an effect of 50% or more. The list shows a part of the results.
The compounds below were run on Plasmodium falciparum (assay: Primary screen in NF54 nanoGlo assay, in single point, at 2uM, 72h; a lower Z score goes with more inhibition). Details: timepoint 72 hour.
Assay type: functional, Erythrocyte

Compound	% Inhibition [%]	Z score
Cc1cccnc1N(C)C(=O)[C@@H](c1ccccc1)N1CCCCC1=O	-14	2.02
CC(C)(C)OC(=O)N[C@@H]1CCCC[C@H]1NC(=O)NC1CCCCC1	-4	0.48
COCCN(Cc1ccc(OC)c(OC)c1)C[C@H](Oc1ccccc1)C(=O)N1CCOCC1	-4	0.39
COc1ccc(S(=O)(=O)N2CCCCC[C@H]2c2ccccc2Cl)cc1OC	-7	0.95
CC(=O)c1nc(CCN(C)C(C)=O)sc1C	-10	1.24
Cc1oc(-c2ccn[nH]2)cc1S(=O)(=O)Nc1ccc(OC(F)(F)F)cc1	13	-1.33
CCCS(=O)(=O)N1CC[C@H]2CN(Cc3ccccc3)C[C@@]2(CO)C1	-10	1.4
Cc1c(-c2n[nH]c3c2CN(C(=O)c2csnn2)CC3)cccc1C(F)(F)F	-12	1.03
CCc1ncc2c(n1)CN(C(=O)c1ccc3c(=O)n(C)cnc3c1)C2	-4	0.83
O=C(Nc1ccc(S(=O)(=O)NC2CCOCC2)cc1)N1CC(CC2CC2)C1	-6	0.9
CC(C)Cn1c(Cn2cccn2)nc2cc(NC(=O)c3ccc(F)cc3)ccc21	-1	0.06
Clc1ccc2c(c1)C1OCCCC1C(c1ccccc1)N2 (stereo not drawn)	-8	0.88
Cc1c(CCC(=O)N2CC(CC(F)F)C2)cnn1C	0	0
CC1=C(C(=O)NCc2cn(C)nc2C)CCC(C)(C)C1	-17	2.05
c1ccc(N2CCc3nc(NCc4cccnc4)ncc32)cc1	-14	2.54
CC/C=C(/CN1CCC(CNC(=O)[C@H]2CCCN(C)C2)CC1)c1ccccc1	1	-0.1
O=C(Cc1ncc(C(F)(F)F)cc1Cl)c1ccc(Cl)c(Cl)c1	39	-5.03
Cc1cc(OC2CCCC2)n2nccc2n1	-11	1.46
Cc1noc(C2CCN(C(=O)c3cc(C)n(C)c3C)CC2)n1	0	0.03
NC(=O)N1CCC[C@H](C(=O)N2CC(OCc3ccccc3)C2)C1	-5	0.89
CC(C)CNS(=O)(=O)CCCOc1ccc(F)cc1	0	0.06

Compound	% Inhibition [%]	Z score
COc1ccc(CC(=O)n2nc(-c3ccc(F)cc3)nc2N)cc1	-12	1.89
CNS(=O)(=O)CCn1ccnc1-c1ccccc1Cn1cccn1	0	-0.05
Cc1ccc(N2CCCC2)c(C(=O)N2CC(C)NC(C)C2)c1 (stereo not drawn)	-5	0.83
CCCc1cc(-c2cccc(C(=O)N3CCN4CCC[C@H]4C3)c2)nc(C)n1	-5	0.87
CCc1ccc(C(=O)N2C[C@@H]3CC[C@H]2CN(Cc2cscn2)C3)s1	1	-0.1
Cc1nnc(C(C)N2CCC3(CC2)CC3C(=O)N2CCCCC2)o1 (stereo not drawn)	3	-0.39
COCCNc1ncccc1-c1noc([C@@H]2CCCN2Cc2ccncc2)n1	35	-3.97
CC(C)[C@@H]1N(C(=O)NCc2ccccc2S(N)(=O)=O)CC12CC=CC2	-12	1.82
Cc1nn(C)cc1[C@@H]1CCCN1C(=O)c1cnn(C2CCC2)c1	6	-0.76
CC(C)c1ccccc1OC[C@@H](O)CN	-8	1.36
CCN(CCc1ccncc1)S(=O)(=O)c1ccc(N2C(=O)CCS2(=O)=O)cc1C	32	-0.69
CN1C(C(=O)Nc2ccc(C#N)cc2)CC(c2ccco2)NS1(=O)=O (stereo not drawn)	-22	1.92
CC(COC1CCOC1)NCc1cc(F)ccc1Br (stereo not drawn)	-9	1.06
COCC1(C(=O)N[C@H]2CN(C)S(=O)(=O)c3ccsc32)CCC1	-6	0.7
COC(=O)CCc1csc(-c2cnc3ccccn23)n1	-11	1.58
COc1ccc(C(=O)N2CCN(c3ccc(NC(=O)c4cccs4)cn3)CC2)cc1	-28	3.97
O=C1CC[C@@H]2CN(c3ccncc3)CC[C@@H]2N1CCc1ccccn1	14	-2.29
Cc1n[nH]c2cc(NC(=O)Cc3cccc(O)c3)ccc12	5	-0.56
O=C(Cc1ccsc1)N1CC[C@H](OCc2ccccc2)C1	-12	2.08
CCCCc1nc(CN2CCC[C@](C)(C#N)C2)c[nH]1	-14	1.81
Cc1ccccc1-c1noc(-c2ccc(N3CCN(C)C(=O)[C@@H]3C)nc2)n1	-20	2.4

Compound	% Inhibition [%]	Z score
CC(C)N1CCN(C(=O)C2C3CCCCC32)CC1=O (stereo not drawn)	-10	0.83
Cc1ccn(CC(=O)NOCc2ccccc2)c(=O)c1C#N	-11	1.07
CCN1C[C@H](Nc2nnnn2-c2ccccc2)[C@@H](OC)C1	5	-0.72
O=C([C@@H]1C=CCN1)N(Cc1ccncc1)Cc1ccc2c(c1)OCO2	-8	1.35
CCCN(CC(=O)OC)S(=O)(=O)c1cnn([C@H]2CCOC2)c1	6	-0.66
CCN(CC)C(=O)C1CCCN(C2CCC(=O)N(Cc3ccc(F)c(F)c3)CC2)C1 (stereo not drawn)	1	-0.12
CC(C)NS(=O)(=O)NC(C)C1CCN(Cc2ccccc2)C1 (stereo not drawn)	-8	1
C[C@@H]1CCO[C@@H]1C(=O)NS(=O)(=O)Cc1ccc2c(c1)COC2	-1	0.13
C[C@@H](c1ccco1)N(C)C(=O)Cn1ncc(N(C)Cc2ccccc2)cc1=O	-13	1.95
O=C1NC2(C(=O)NCC3(c4ccccc4)CC3)CC3CC1C2C3 (stereo not drawn)	-7	1.44
Cc1ccc(Cn2nc(CC(N)=O)nc2[C@@H]2C[C@@H](O)CN2)cc1	-11	2.09
O=C(Cn1cc(S(=O)(=O)Cc2ccccc2F)c2ccccc21)N1CCCc2ccccc21	-5	0.75
CNc1cc(C)nc(NCc2ccc3[nH]c(C)c(C)c3c2)n1	-8	1.47
CC[C@H]1Cn2c(C(=O)NC3CCCC3)cc3c(Cl)ccc(c32)O1	33	-4.82
Cc1cc(F)ccc1Oc1cc(N2CCN(S(=O)(=O)c3ccccc3)[C@@H](C)C2)ncn1	2	-0.27
C[C@@H](Cc1ccoc1)NC(=O)C1CCC1	-2	0.29
Fc1ccc(N2CCN(c3nn4cnnc4c4ccccc34)CC2)cc1	-10	1.31
CCOC(=O)N1CCN(C(=O)Nc2ccc(NC(=O)N3CCN(C(=O)OCC)CC3)cc2)CC1	-17	2.27
Cn1cc(C[C@H](NC(=O)OC(C)(C)C)C(=O)N2CC=C(c3c[nH]c4ccccc34)CC2)c2ccccc21	3	-0.46
Nc1cc(Cl)ccc1Br	-2	0.24
O=C(COc1ccc(F)cc1)N[C@H]1CC(=O)N(c2ccc3c(c2)OCCO3)C1	-12	2.36

Compound	% Inhibition [%]	Z score
CC(=O)Cn1nc(C)c(-c2ccc(C(=O)O)cc2)c1C	-2	0.2
O=C(c1coc(CN2CCN(C[C@H](O)CN3CCOCC3)CC2)n1)N1CCN(c2ccccc2)CC1	-4	0.63
O=C(C1CCC1)N1CCOc2ccc(CN3CCCC3)cc2C1	-15	1.58
COc1ccc(-c2cn3c(n2)sc2ccccc23)cc1OC	14	-1.27
Nc1[nH]n(-c2ccccc2)c(=O)c1C1=NCCCCC1	-2	0.27
NC(=O)NC(=O)[C@H](Nc1ccc(Oc2ccc(Br)cc2)cc1)c1ccccc1	-4	0.44
CCN(CC)CCN(CC(=O)N1CCCN(c2ccc(-c3ccc(OC)cc3)nn2)CC1)C(=O)c1ccco1	-3	0.57
CC(C)(C)c1cc(CN2CCC(Oc3ccccc3F)(C(=O)O)CC2)n[nH]1	2	-0.28
CC(=O)Nc1ccc(-n2c(CCC(=O)N3CCc4ccccc4C3)ccc2-c2ccc(F)cc2)cc1	-19	2.73
CC(C)N(C)C(=O)c1ccc(Cl)c(N)c1	-11	2.04
Cc1nn([C@@H]2CCCCO2)c(C)c1Br	-10	1.3
CCc1nc(C)sc1Cn1cc(-c2cc(OC)c3c(c2)OCO3)nn1	1	-0.11
CC(=O)c1cnc(NC[C@H](C)Cn2nc(C)cc2C(F)(F)F)nc1C	-9	1.19
CCn1c(Cc2cccs2)nc2ccccc21	-6	0.85
CN(CC(=O)N1CCN(c2ccccn2)CC1)C(=O)c1c[nH]c2ccccc12	-8	1.19
COc1cc(C)c(S(=O)(=O)N2CCc3cc4cc(C)ccc4nc32)cc1C	26	-3.26
CN1CCO[C@H](C(=O)Nc2nc(CC(C)(C)C)cs2)C1	-14	1.62
O=C(c1ccc(C2=CCCC2)cc1)N1CCC(c2nnc3n2CCCC3)CC1	-11	1.75
COc1nc(C)c(Br)c(C)c1C(=O)O	-2	0.38
CN(C)c1ccccc1NC(=O)[C@@H]1CCCCC(=O)N1	-2	0.43
CC(C)(NCC(=O)NCC(=O)O)c1ccc(Cl)c(Cl)c1	32	-3.66
